± gives the standard deviation of the averaged measurements. The list shows a part of the results.
Test system: PfAP2-LT AP2 domain (GST-tagged)
Experiment: gcPBM binding intensity (ln(normalized median fluorescence intensity)); higher = stronger DNA binding
Summary of the method: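 For binding intensity, the highest Masliner-normalised natural-log median intensity across replicate spots of either probe orientation was taken. Protein bound to the array was stained with Alexa488 anti-GST antibody and scanned at 488 nm. The protein, GST-tagged P. falciparum DNA-binding domains from E. coli at about 25 μg on average, had been applied for 1 h to an Agilent 4 × 180k array of primer-extended double-stranded 36-bp intergenic genomic probes and negative controls.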

Row | Sequence | gcPBM binding intensity (ln)
1 | AGAAATAAAAAAAAAAATATATATATTATATATATA [CACACA_negctrl_site1799] | 8.55 ± 0.37
2 | TTATACATATTTATATGTACGTAATATAATATTAAT [XGTACX_site6520] | 8.63 ± 0.38
3 | TTATAATTTTTCTATTGTACATTTAATAATATATAT [XGTACX_site7326] | 8.56 ± 0.47
4 | ATGAAGAAATAAATGTGTACATATCTTAGTATCATA [XGTACX_site8658] | 8.92 ± 0.42
5 | TATTTAATTTATACACGTACATATATAAATAATACA [XGTACX_site1148] | 8.51 ± 0.35
6 | ATTTTTTCTCATAAAAACGTGAACGTTTATTTTACA [CACACA_negctrl_site1041] | 8.67 ± 0.45
7 | TCAACAAAATTGAAGGAACACACATACATATATATA [CACACA_site7940] | 9.01 ± 0.4
8 | TATAAATATCTGTATGCACACATTTTTTTTGGAAAA [CACACA_site4734] | 8.85 ± 0.42
9 | AGCACATAAATAATTAAACACACATTGTTCTAGACA [CACACA_site8746] | 8.97 ± 0.38
10 | ATTATAAAAGAATTTTTTTTTATTTCATTAAAATAT [CACACA_negctrl_site1137] | 8.04 ± 0.46
11 | TTACTATAAAATGTCACACATTCTGTTTCCTTACTT [CACACA_site5714] | 8.86 ± 0.54
12 | GTGTATATATGTTATACACACAAAAATATTTTGTAT [CACACA_site265] | 8.97 ± 0.37
13 | AAAAATCATATAGGTTGTACGGGTAGTTTATTTTAT [XGTACX_site6936] | 8.95 ± 0.41
14 | AAAAAAATAATATAAATAATGAAAAGATATAAATAA [GTGCAC_negctrl_site432] | 8.62 ± 0.57
15 | TACATATATAAATATGTACACACATATGTATGATCT [CACACA_site9284] | 9.12 ± 0.23
16 | AATATAAGCAAATACACACACACATATAAATATGTA [CACACA_site7741] | 9.85 ± 0.35
17 | ATATGAAGTATCGAATTAAGGGCAACAAATAAATTA [CACACA_negctrl_site1116] | 8.76 ± 0.57
18 | TTATTATATAAAGTTTCACACATTATTTGTTCAAAC [CACACA_site5218] | 8.74 ± 0.47
19 | TTATATATGACTAACGGTTTTTTTTTTTTTTTTTTT [CACACA_negctrl_site576] | 8.79 ± 0.28

Row | Sequence | gcPBM binding intensity (ln)
20 | ATTGAGAGAAAAAAATGTACTTGATCAAAATGGATA [XGTACX_site1649] | 8.73 ± 0.52
21 | TAATATCAATTTTTATGTACTTATATATATATATAT [XGTACX_site5879] | 8.94 ± 0.37
22 | AGTAGTCTGGAGAAGAGTACACAGTATCTGGTAACA [XGTACX_site2032] | 8.71 ± 0.52
23 | AATATATATTAAATATGTACTTATTTTTTGGTTGCT [XGTACX_site3613] | 8.76 ± 0.52
24 | AAAGAATAATTAAATACACACATATTACAGTAAAAA [CACACA_site2450] | 9.02 ± 0.41
25 | ACAAAAAAAAAAAAAAAAAAAAAAAAAAAATAATAA [CACACA_negctrl_site1640] | 8.37 ± 0.54
26 | AAAATATATTAAGGCACACACATACATATTTATATA [CACACA_site7707] | 9.29 ± 0.4
27 | AGATCAATAATGACAAGTACACAAAATAACATTTAA [XGTACX_site6968] | 8.99 ± 0.57
28 | ATTTTGTAAAAGGTCATACACACATATTCAAAAGAA [CACACA_site2946] | 8.84 ± 0.35
29 | TGTACACCCAGAAATGCACACACATATATATATATA [CACACA_site8716] | 9.94 ± 0.29
30 | TGTACAGTATATACAACACACATTTGTATAAATATA [CACACA_site1002] | 9.29 ± 0.52
31 | TGCATAATTAAAAATGGTACACTGTATTTATAATAT [XGTACX_site1575] | 8.72 ± 0.42
32 | TATAAATTAAGATAACGTACATATAATAATATAAAC [XGTACX_site487] | 8.95 ± 0.49
33 | AATAGAGTTGAATGCACACATACAAATTTTTAGTTT [CACACA_site3564] | 9.05 ± 0.51
34 | TATATATATTTTATGTGTACTCAATGTTATAACGCA [XGTACX_site8360] | 8.64 ± 0.48
35 | ATAATATATATATATACGCACACTTATGTACGGATT [CACACA_site2120] | 9.1 ± 0.38
36 | AACAATGTTTTCTTGTGTACACATCATTAAAGAAAA [XGTACX_site4726] | 8.6 ± 0.35
37 | TTCTATATAATTCAAACATGCACAGGAAATATTATA [TGCATGCA_site290] | 8.48 ± 0.28
38 | TATGTAACACATACTTGTACATATATAATTTTTTTA [XGTACX_site6251] | 8.54 ± 0.46

Row | Sequence | gcPBM binding intensity (ln)
39 | AAGAAAAAAGGGGACAAGGCATATCTATATATACAT [TGCATGCA_negctrl_site172] | 8.97 ± 0.58
40 | ATACATATATATATATGTACATATGCACATATATAC [XGTACX_site7209] | 9.02 ± 0.34
41 | TATTGTATGGTAGGATATGATGTTATTTGTTATAAT [CACACA_negctrl_site202] | 8.78 ± 0.33
42 | TCTTTTGCCCAAAAAGGTACACACCACAATTTAAAT [XGTACX_site1482] | 8.71 ± 0.3
43 | ATATATATATCACGCACACACGAATTTTAAATATAT [CACACA_site5691] | 9.43 ± 0.32
44 | TTATTTTTACAATTTTAATAATAATACTAAAACAAA [XGTACX_negctrl_site538] | 7.98 ± 0.42
45 | AATATATTATAATATACACACATATATGCTCTTTAA [CACACA_site4131] | 9.02 ± 0.38
46 | ATTTAAAAGAAATAATGTACGAATCATATTTGATAT [XGTACX_site1785] | 8.69 ± 0.49
47 | ATATATTATATATATTTTAAGTAATTTGCAAAAAAT [GTGCAC_negctrl_site361] | 8.36 ± 0.36
48 | ATAAGAAAAGGACACACACACAAAAAAAAAAAAAAA [CACACA_site7351] | 9.48 ± 0.51
49 | TTTATTTATTATTGTTGTACACTTTTTATAAAAAAA [XGTACX_site5114] | 8.57 ± 0.53
50 | ATGTATATAATATTATGTACATATATGAAATATTTT [XGTACX_site8168] | 8.87 ± 0.38
51 | TAGTTTTTTATAAAATTATTTATATAAAGGTAAAAA [CACACA_negctrl_site490] | 8.07 ± 0.47
52 | TATATTTGTAAGAAGAGTACTAAAAAAAGAATAAAG [XGTACX_site8704] | 8.62 ± 0.49
53 | TTCCCTAATATTTGTTGTACTTGTTATATTTTTTTT [XGTACX_site5994] | 8.97 ± 0.57
54 | ATATATATATATATATGTACGTACTCAGTTATGCCT [XGTACX_site453] | 10.2 ± 0.29
55 | ATTTATTAACCATATACACACATATATTTGTATTTA [CACACA_site6744] | 9.06 ± 0.35
56 | ATAGTATCTGGTAGCTGTACGAGTCGTAGAGTGCAG [XGTACX_site2020] | 8.98 ± 0.49

Source: the supplement of paper PMC11417369
